# Test results from PubChem BioAssay AID686979 (National Center for Advancing Translational Sciences (NCATS), 2013).
# “And” between values parts separate entries of the source, which are not always exact repeats. Equal entries are not always repeated. About 50,000 (12%) of roughly 420,000 compounds were called active. The inconclusive results got no clear call from the source; some entries with a clear call stand among them for comparison. Calls follow the shape of the dose curve; as a rule, active = well fitted inhibition curve with a large enough effect; inconclusive = small, poorly fitted or top-dose-only effect; inactive = flat fitted curve, though single readings scatter. A potency beside an inconclusive call is a rough fit, not a confirmed value.
# Assay: qHTS for Inhibitors of human tyrosyl-DNA phosphodiesterase 1 (TDP1): qHTS in cells in presence of CPT; also: nearly all actives have a fitted effect of over 55% in size
# Details: chicken DT40 Tdp1-/-;hTDP1 cells + 20 nM CPT, ATP luminescence, 48 h; activity change, negative = growth inhibition: at 46.2 µM (top of the series) unless noted
# Outline: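 Chicken DT40 Tdp1-/- cells stably complemented with human TDP1 were seeded at 400 cells/well in medium containing 20 nM camptothecin, exposed to pin-transferred compounds, and grown at 37 °C for at least 48 hr. Viability was read as ATP luminescence.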
# % is scaled to controls: 0 for no effect and ±100 for the full control effect; potency is read from the fitted curve at half-maximal effect; tags tell the direction and shape of the fitted curve.
Structure (SMILES),Potency,"activity change, negative = growth inhibition"
CN(CCOc1ccccc1)S(=O)(=O)c1ccc2oc3ccccc3c2c1,"inconclusive: 29.1 µM [inhibitor, single point]",
COC(=O)COc1c(Cl)cc(C(c2c(C)[nH][nH]c2=O)c2c(C)[nH][nH]c2=O)cc1OC,inactive,
N#Cc1cccc(NC(=O)c2cc(C3CCCCN3C(=O)c3ccccc3)on2)c1 (stereo unspecified),active: 18.4 µM,
Cc1ccc(NC(=O)C2CCN(S(=O)(=O)c3ccc4c(c3)OCCO4)CC2)nc1,inactive,
Cc1ccccc1CNC(=O)C(=O)NCC1OCCCN1S(=O)(=O)c1ccc(F)cc1C (stereo unspecified),"inconclusive: 29.1 µM [inhibitor, single point]",
CCCCCCCCSc1nnc2[nH]c(=O)cc(N)n12,"inconclusive: 29.1 µM [inhibitor, single point]",
CCOc1ccc(C(=O)Nc2cc(-c3nc4ccccc4[nH]3)ccc2Cl)cc1[N+](=O)[O-],"inconclusive: 29.1 µM [inhibitor, single point]",
CCN(CC)S(=O)(=O)c1ccc(Cl)c(NC(=O)COC(=O)/C=C/c2ccc(O)c(OC)c2)c1,"inconclusive: 29.1 µM [inhibitor, single point]",
CCn1c(SCC(=O)Nc2ccccc2)nc2c(c1=O)SCC2,inactive,
CC(=O)c1ccc(NC(=O)c2nn(C)c3c2COc2ccccc2-3)cc1,active: 14.6 µM,
CC(=O)c1cccc(NC(=O)c2ccc(N(Cc3ccccc3C)S(C)(=O)=O)cc2)c1,"inconclusive: 29.1 µM [inhibitor, single point]",
Cc1ccc2oc(=O)n(CCCOc3ccccc3C)c2c1,inactive,
O=C(Nc1ccc2cn[nH]c2c1)c1c(Cl)cccc1Cl,inactive,
COc1ccc(-c2csc(Nc3ccccc3)n2)cc1,"inconclusive: 18.4 µM [inhibitor, single point]",
O=Cc1ccnc2ccccc12,active: 2.82 µM,
Cc1sc2ncnc(N3CCC(C)CC3)c2c1C,"inconclusive: 32.6 µM [inhibitor, partial curve]",
COc1ccccc1/C=C/C=N/n1c(C2CCCCC2)n[nH]c1=S,"inconclusive: 29.1 µM [inhibitor, single point]",
CCCN1CCN(CCCNC(=O)c2ccc3c(Cl)c4c(nc3c2)CCCC4)CC1,active: 20.6 µM,
CCN(c1ccccc1)S(=O)(=O)c1ccc(Cl)c(NC(=O)CN2CCCCCC2)c1,active: 20.6 µM,
CCc1cc2c(-c3ccccc3)cc(=O)oc2c2c1OCN(Cc1ccc(C)cc1)C2,"inconclusive: 23.1 µM [inhibitor, single point]",
COc1ccc(CC2(CO)CCN(Cc3ccc(OC(F)(F)F)cc3)CC2)cc1,"inconclusive: 20.6 µM [inhibitor, single point]",
CCn1cc(/C=N\NC(=O)c2ccc3c(c2)c(C)c(C)n3Cc2ccccc2)c(C)n1,active: 13 µM,
Oc1c(C(Nc2ccccn2)c2ccccn2)ccc2cccnc12 (stereo unspecified),active: 0.82 µM,
CCOC(=O)COc1ccccc1/C=N\NC(=O)c1cc2c(ccc3ccccc32)o1,inactive,

Structure (SMILES),Potency,"activity change, negative = growth inhibition"
O=C1CCCCC1Sc1ccc(Cl)cc1[N+](=O)[O-] (stereo unspecified),inactive,
Cc1nn(Cc2ccc(Br)cc2)c(C)c1NC(=O)c1nn(C)cc1Cl,"inconclusive: 20.6 µM [inhibitor, partial curve, poor fit]",
COC(=O)N1CCC2(CC1)CN(C(=O)Nc1ccc(OC)cc1)C2,inactive,
Cc1c(C(=O)N2CC3CCC2C3)sc2ncnc(NCCc3c[nH]c4ccccc34)c12 (stereo unspecified),"inconclusive: 16.4 µM [inhibitor, single point]",
COc1cccc(C2=CC(=O)C(C(C)(C)C)N2C(C)(C)C)c1 (stereo unspecified),"inconclusive: 16.4 µM [inhibitor, single point]",
Cc1cc(=O)[nH]c(=O)n1Cc1ccccc1,inactive,
Cc1c(O)ccc(C(=O)CN2CCN(c3ccc(F)cc3)CC2)c1O,"inconclusive: 16.4 µM [inhibitor, single point]",
O=C(O)c1cccc(NC(=O)c2cccc(S(=O)(=O)N3CCc4ccccc4C3)c2)c1,inactive,
COc1ccc2c(C(=O)c3ccc(C)cc3)n(CCC(N)=O)[n+]([O-])c2c1,inactive,
O=C1CSC(c2ccc([N+](=O)[O-])cc2)N1Cc1ccccc1 (stereo unspecified),,inconclusive: -31.2% [inhibitor]
COc1ccc(N(C(=O)c2ccc(Br)o2)C2C=CS(=O)(=O)C2)cc1 (stereo unspecified),active: 13 µM,
Clc1ccc(-c2n[nH]c3c2CCC3)c(Cl)c1,inactive,
CCn1c(SCc2c(Cl)cccc2Cl)nnc1-c1nn(-c2ccccc2)ccc1=O,"inconclusive: 29.1 µM [inhibitor, single point]",
CCCNC(=S)N(Cc1ccccc1)Cc1nc2ccccc2c(=O)[nH]1,inactive,
CN(Cc1ccco1)C(=O)C1CCC(=O)N(CCc2cccc(F)c2)C1 (stereo unspecified),"inconclusive: 29.1 µM [inhibitor, single point]",
O=C1N/C(=N\N=C\c2ccccn2)SC1Cc1cccc(SC(F)F)c1 (stereo unspecified),active: 7.31 µM,
O=C(C=Cc1ccc2c(c1)OCO2)C=Cc1ccc2c(c1)OCO2,"inconclusive: 18.4 µM [inhibitor, single point]",
COc1ccccc1C(=O)N/C(=C\c1cn(S(=O)(=O)N(C)C)c2ccccc12)C(=O)NCCCN1CCOCC1,"inconclusive: 29.1 µM [inhibitor, single point]",
Cc1ccc(N=Nc2c(N)[nH]n3c(=O)cc(-c4ccccc4)nc23)cc1,"inconclusive: 18.4 µM [inhibitor, single point]",
O=C(Cc1ccc(S(=O)(=O)N2CCOCC2)s1)OCc1ccc(Cl)cc1,inactive,
CCOC(=O)c1sc(NC(=O)COC(=O)CNC(=O)c2ccco2)c(C(=O)OCC)c1C,"inconclusive: 29.1 µM [inhibitor, single point]",
O=C(c1ccc(Cl)c(Cl)c1)N(Cc1ccco1)c1ccc(O)cc1,"inconclusive: 20.6 µM [inhibitor, single point]",
N#Cc1ccc(/C=C2/C=Cc3ccccc32)cc1,"inconclusive: 35.5 µM [inhibitor, single point]",
Cc1[nH]n(C(N)=S)c(=O)c1N=Nc1ccc([N+](=O)[O-])cc1Cl,"inconclusive: 4.11 µM [inhibitor, partial curve, poor fit]",

Structure (SMILES),Potency,"activity change, negative = growth inhibition"
Cc1cccc(Nc2nc(N)nc(-c3oc4ccccc4c3C)n2)c1,"inconclusive: 16.4 µM [inhibitor, single point]",
O=C(CCS(=O)(=O)c1ccc(F)cc1)Nc1nccs1,"inconclusive: 23.1 µM [inhibitor, single point]",
O=C(NCc1ccc(F)cc1)c1cc(C2CCCCN2C(=O)OCCF)on1 (stereo unspecified),"inconclusive: 18.4 µM [inhibitor, partial curve]",
Cc1ccc(NC(=O)C2CCCN(S(=O)(=O)c3ccc4[nH]c(=O)ccc4c3)C2)nc1 (stereo unspecified),inactive,
COC(=O)c1sccc1S(=O)(=O)Nc1ccc(C(O)(C(F)(F)F)C(F)(F)F)cc1,active: 18.4 µM,
CCOC(=O)N1CCC(NC(=O)c2ccc3c(c2)ncn3C2CCCC2)CC1,"inconclusive: 16.4 µM [inhibitor, single point]",
CCOC(=O)C1=C(C)NC(C)=C(C(=O)OCC)C1c1ccc(OC)cc1,active: 14.6 µM,
COc1ccc(OC)c(-n2c(SCC(=O)Nc3cc(C)on3)nnc2-c2c[nH]c3ccccc23)c1,"inconclusive: 23.1 µM [inhibitor, partial curve, poor fit]",
CCC1CCCCN1CCCNC(=O)c1ccc2c(c1)c(C)c(C)n2C (stereo unspecified),"inconclusive: 25.9 µM [inhibitor, single point]",
O=S(=O)(NCCc1csc(-c2ccccc2)n1)c1cccnc1,inactive,
O=C(Nc1cccc(-c2nc3ccccc3[nH]2)c1)c1cccc(NC(=O)c2ccco2)c1,active: 16.4 µM,
COc1ccccc1NS(=O)(=O)c1cccc(NC(=O)NCCCl)c1,active: 20.6 µM,
O=S(=O)(c1cccc2ccccc12)N1CCC2CC1c1cc(Cl)ccc12 (stereo unspecified),"inconclusive: 29.1 µM [inhibitor, single point]",
COc1ccc(C(=O)N(c2c(C)cccc2C)C(COC(C)=O)COC(C)=O)cc1,"inconclusive: 29.1 µM [inhibitor, single point]",
COc1ccc(C(CC(=O)N2CCCCC2)c2c(OC)cc(OC)c3c(-c4ccccc4)cc(=O)oc23)cc1 (stereo unspecified),"inconclusive: 29.1 µM [inhibitor, single point]",
CC(COc1ccccc1)NN (stereo unspecified),inactive,
COCCCNC(=O)C[C@@H]1C[C@@]2(C(=O)OC)CC(C)(C)CC=C2N(Cc2ccccc2)C1=O,"inconclusive: 29.1 µM [inhibitor, single point]",
COc1ccc2c(c1)N(C[C@H](C)CN(C)C)c1ccccc1S2,"inconclusive: 12.8 µM [inhibitor, single point] and inconclusive: 29.1 µM [inhibitor, single point]",
CCOc1ccc(NC(=O)C/C(C)=N/NC(=O)Cc2cccs2)cc1,inactive,
C=CCNC(=O)/C(C#N)=C/c1ccccc1Cl,"inconclusive: 29.1 µM [inhibitor, single point]",
CCCOc1ccc(-c2c(=O)n(O)c3ccccc3[n+]2[O-])cc1,"inconclusive: 11.6 µM [inhibitor, partial curve, poor fit]",
Cc1cc(SCC(=O)OCC(=O)N(C)C2CCS(=O)(=O)C2)c(C)cc1Br (stereo unspecified),"inconclusive: 23.1 µM [inhibitor, single point]",
COc1cccc(N=Nc2c(N)[nH]n3c(=O)c4c(nc23)CCCC4)c1,"inconclusive: 29.1 µM [inhibitor, single point]",
